Measurements taken from the supplement of paper PMC3334620.
The full ranking holds about 33,000 sequences; the median of “E-score (-0.5 to 0.5)” is about -0.012, and the highest 2% start at about 0.27. The list shows a part of the results.

Biological target: T1, Vhr1 (UniProt P40522)
T1 sequence: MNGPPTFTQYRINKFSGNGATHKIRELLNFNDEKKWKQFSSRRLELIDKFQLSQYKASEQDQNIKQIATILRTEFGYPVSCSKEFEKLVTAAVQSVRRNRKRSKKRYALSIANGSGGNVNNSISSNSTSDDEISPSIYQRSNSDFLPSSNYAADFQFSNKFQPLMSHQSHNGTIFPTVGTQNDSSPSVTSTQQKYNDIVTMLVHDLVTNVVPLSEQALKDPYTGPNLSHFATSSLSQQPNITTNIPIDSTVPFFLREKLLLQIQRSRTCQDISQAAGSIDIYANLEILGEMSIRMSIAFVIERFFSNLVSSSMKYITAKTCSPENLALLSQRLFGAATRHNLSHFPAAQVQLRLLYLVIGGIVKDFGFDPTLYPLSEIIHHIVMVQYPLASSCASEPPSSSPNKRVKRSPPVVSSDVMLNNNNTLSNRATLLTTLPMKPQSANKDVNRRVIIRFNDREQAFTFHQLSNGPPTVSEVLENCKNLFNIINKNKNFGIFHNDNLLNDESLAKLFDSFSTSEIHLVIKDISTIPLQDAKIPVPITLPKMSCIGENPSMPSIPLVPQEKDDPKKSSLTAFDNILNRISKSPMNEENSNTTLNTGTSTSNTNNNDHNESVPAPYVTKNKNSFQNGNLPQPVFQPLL
Assay: PBM E-score (8-mer binding enrichment) (E-score (-0.5 to 0.5)); higher = stronger / more preferred TF binding; most listed sequences are background and not binding sites
Settings: protein concentration: 200 nM; construct: GST-full length
Description: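 Universal 'all 10-mer' protein binding microarrays (Agilent AMADID 015681) probed with GST-tagged S. cerevisiae TFs (full-length or DBD) made by in vitro transcription/translation (PURExpress), about 100-200 nM. Bound TF was detected with fluorescent anti-GST. Each ungapped 8-mer (which stands for itself and its reverse complement) is scored by the PBM enrichment score (E-score), a modified Wilcoxon-Mann-Whitney statistic from -0.5 to +0.5, computed with the Universal PBM Analysis Suite. Scale: above 0.35 generally sequence-specific binding.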

| Sequence | PBM E-score |
| --- | --- |
| ACTTACAT | 0.0777 |
| AGAAACAC | -0.0185 |
| CCCGCTAC | -0.0733 |
| TCGTTACA | 0.0717 |
| GGTAGGGA | 0.105 |
| AAGGCCGG | 0.0229 |
| CAAAGTTA | -0.0997 |
| ATCTTAAT | -0.0959 |
| CTGGTTAC | -0.0787 |
| CAAGCGAA | -0.108 |
| TCGGCCCA | -0.0331 |
| ATTTGGGG | 0.0857 |
| GGCTCGGA | 0.0185 |
| GAGGCGAC | -0.205 |
| AGCAACTA | 0.0441 |
| CCTTAGTC | 0.0771 |
| AATCCATC | 0.136 |
| CTGTAGCA | -0.158 |
| GCTTAGAA | -0.117 |
| CGAACGCA | 0.25 |
| GCGCCTCA | -0.0378 |
| ATCGCGGC | 0.164 |
| CCATGCAG | 0.097 |
| ACATTTCT | -0.142 |
| AGGGCAAC | -0.169 |

| Sequence | PBM E-score |
| --- | --- |
| CACTCAAG | -0.0403 |
| AACCGGCA | -0.129 |
| AAAACAAC | -0.175 |
| CAGGTTGA | 0.2 |
| CCTCCATC | 0.00108 |
| CACATAGG | 0.0638 |
| AAAATAAG | -0.307 |
| ATTGCTTC | -0.0471 |
| GCTTCTAA | -0.281 |
| CGCAACAA | -0.112 |
| CCCTTAAA | -0.319 |
| ATTTCCAG | 0.0725 |
| CCCATATC | 0.128 |
| TAGTCGGA | 0.203 |
| CTAACTCC | -0.103 |
| TTATCGAA | -0.0152 |
| ATCGTAGA | -0.0399 |
| AACGAAAA | -0.0921 |
| AACGAGAA | 0.00986 |
| CTTACGTA | -0.262 |
| AACTTTCC | -0.178 |
| TACCTACA | -0.0123 |
| ATAAGAAA | -0.307 |
| ACTAACCG | 0.1 |
| ACCCGAGT | 0.143 |

| Sequence | PBM E-score |
| --- | --- |
| ATTTCCCC | -0.2 |
| GATGCACA | 0.0425 |
| GTTGTCGA | -0.0652 |
| ATGATGTA | 0.255 |
| AGCACATA | 0.132 |
| ACTCGGGC | 0.14 |
| AGGTGGTG | 0.0575 |
| CTATAGAA | -0.0997 |
| GATGATCC | 0.0747 |
| CTAACCGC | 0.0744 |
| CCGGAGAG | 0.0707 |
| ATGCTTTC | -0.0177 |
| GGTATTTA | -0.0772 |
| AAAAGAAG | -0.085 |
| ACGGACCG | -0.0579 |
| GAACTTGA | -0.0374 |
| ATTAGCAG | -0.0969 |
| AGTTTCGA | -0.117 |
| CCATTGGC | 0.0849 |
| AGACCTGG | -0.122 |
| TCATTAGA | 0.049 |
| ATTACTAC | -0.105 |
| TCGCGCCA | 0.00203 |
| ACAGCCGT | -0.0463 |
| CGTAGGAA | -0.077 |

| Sequence | PBM E-score |
| --- | --- |
| ATTACCGG | 0.054 |
| TCTAGTAA | -0.132 |
| CATCCTGG | 0.146 |
| ATGGATGG | 0.0901 |
| CGGCTCGA | 0.185 |
| ACAAAGCG | 0.0155 |
| GATTAACA | 0.195 |
| ACGGAGAC | 0.123 |
| GCTAGCGA | -0.0627 |
| AAGTTATA | -0.0484 |
| ACCGAACC | 0.0248 |
| ATGCTAGA | -0.0856 |
| GGCGTATA | 0.0324 |
| TACTGATA | 0.124 |
| AGTCACAC | 0.415 |
| CTTTTTGC | -0.0773 |
| AGATGTAG | 0.0546 |
| ATTTAGAC | -0.138 |
| GCGCGTAA | 0.0198 |
| CTAGTTCA | -0.0839 |
| AGGGATAG | -0.107 |
| AGATCGGC | -0.0848 |
| AACTTTCA | -0.183 |
| CTGACCGA | 0.12 |
| GCTCTCCA | -0.262 |

| Sequence | PBM E-score |
| --- | --- |
| AAAGAACC | -0.0278 |
| GCAGCGTA | -0.0477 |
| AAAGGCCT | -0.366 |
| AACCCCAG | -0.0415 |
| AACTGCGA | -0.0936 |
| ATTTTTCC | -0.211 |
| CTGGAAGA | -0.0674 |
| AACCCCCG | -0.156 |
| GCTGCTGA | 0.127 |
| AGGTGCGA | -0.00031 |
| AGAAAGAA | -0.25 |
| CAAGCTGG | -0.136 |
| TAGATAGA | -0.177 |
| TCATTCGA | 0.072 |
| CCAACGCC | -0.203 |
| ATTGCAAC | 0.0901 |
| AAACCGGG | 0.132 |
| GATGGTGA | 0.188 |
| CCCACCAC | -0.00821 |
| AACCTCCA | -0.132 |
| GACTGCGA | 0.234 |
| GCGGGAAC | -0.0148 |
| ATGCCTAA | -0.325 |
| CTAACGTC | -0.0791 |
| CGCTGGAG | 0.125 |

| Sequence | PBM E-score |
| --- | --- |
| CACGAACG | 0.0646 |
| ACCGCCTG | 0.0926 |
| ATCTACCA | 0.151 |
| GAGTGACA | 0.123 |
| GAGGACTA | 0.097 |
| AGGACACG | -0.00736 |
| AATTATCA | 0.0129 |
| AACTGGAC | -0.0838 |
| ATACGCAA | 0.0132 |
| ACTGGGGA | -0.0871 |
| AGTCTTGA | 0.00019 |
| AAGAAGCG | -0.176 |
| CGATTCAC | 0.144 |
| GAACGAGC | 0.099 |
| AGGGTCGC | 0.0406 |
| AATAAGCA | -0.114 |
| CCGGGCTC | 0.0188 |
| ACGCCAAG | -0.0928 |
| CACGAGGA | 0.0461 |
| CCGAGCTA | -0.085 |
| CATGCAAG | 0.119 |
| AGATGAGC | 0.0292 |
| TATGTAGA | -0.093 |
| GCACGCAA | -0.116 |
| CGCCTAGC | -0.213 |

| Sequence | PBM E-score |
| --- | --- |
| CGCCTACA | 0.0638 |
| AGTAACAA | 0.113 |
| CTACAGAG | -0.0563 |
| GGAATATA | 0.159 |
| ATGGTGGC | 0.0115 |
| GGAACGGA | -0.123 |
| AAAAGTGA | 0.0469 |
| ATATTTAC | 0.0659 |
| CTGCGTCC | -0.0153 |
| CAATCGGG | -0.0442 |
| GGCTTTAA | -0.196 |
| ATCGTGAG | 0.0346 |
| CGCGTCAA | 0.0808 |
| ATACTAAA | -0.0617 |
| AGCCAAAC | 0.118 |
| CGAATCTC | -0.0376 |
| ATCCTGTA | -0.0631 |
| AGCAAATG | -0.00644 |
| GGCATTAC | 0.0696 |
| TAGAGACA | -0.098 |
| GAGATCTC | -0.229 |
| CATCAAAG | -0.0712 |
